# From PubChem BioAssay AID686979 (National Center for Advancing Translational Sciences (NCATS), 2013)
# In all, about 420,000 compounds went through this assay and about 50,000 (12%) were called active. This list was built around the results that the source calls inconclusive (neither active nor inactive); the mix of calls is not that of the screen. Calls come from the whole dose curve; as a rule, active = well fitted inhibition curve with a large enough effect; inconclusive = small, poorly fitted or top-dose-only effect; inactive = flat fitted curve, though single readings scatter. Potencies of inconclusive entries are left out as doubtful fits.
# Assay: qHTS for Inhibitors of human tyrosyl-DNA phosphodiesterase 1 (TDP1): qHTS in cells in presence of CPT; note: nearly all actives have a fitted effect of over 55% in size
# Settings: chicken DT40 Tdp1-/-;hTDP1 cells + 20 nM CPT, ATP luminescence, 48 h; activity change, negative = growth inhibition: at 46.2 µM (top of the series)
# Procedure, shortened: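 Cell growth measured by CellTiter-Glo luminescence after a minimum 48 h, 37 C compound exposure with 20 nM CPT in Tdp1-knockout DT40 cells stably expressing hTDP1, seeded 400/well; qHTS titration format.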
# % is set by controls: 0 for no effect and ±100 for the full control effect; potency is the fitted concentration of half-maximal effect; tags give direction and shape of the fitted curve.
Compound,Potency,"activity change, negative = growth inhibition"
COC(=O)c1cccnc1-n1c(=O)c2cccnc2n(Cc2ccc([N+](=O)[O-])cc2)c1=O,inactive,–
CCOc1ccc(-c2[nH]ncc2Oc2cccc(OC)c2)c(O)c1,"inconclusive [inhibitor, single point]",–
CC(CC(=O)Nc1ccc(Br)cc1F)S(=O)(=O)c1ccc2c(c1)NC(=O)CO2 (stereo unspecified),"inconclusive [inhibitor, single point]",–
O=C(CCc1nc2sc3c(c2c(=O)[nH]1)CCCC3)NCCc1ccccc1,"inconclusive [inhibitor, single point]",–
COc1ccc(NC(=O)C(=O)NCC(=O)Nc2cc(OC)ccc2OC)cc1,inactive,–
Cc1ccc2c(=O)cc(C(=O)Nc3ccc(S(=O)(=O)N4CCCCCC4)cc3)oc2c1C,–,inconclusive: -30.8% [inhibitor]
CCOC(=O)[C@]12CCCC=C1N(Cc1ccc3c(c1)OCO3)C(=O)[C@H](CC(=O)NCc1cccc(C(F)(F)F)c1)C2,"inconclusive [inhibitor, single point]",–
CCCCOc1ccc(CNC(=O)CCCN2C(=O)CSc3c2c(C)nn3-c2ccccc2)cc1,active: 18.4 µM,–
COc1ccccc1-c1cncnc1Nc1ccccc1,"inconclusive [inhibitor, single point]",–
CCOC(=O)c1ccccc1NC(=O)c1sc2nc3n(c(=O)c2c1C)CCCC3,"inconclusive [inhibitor, single point]",–
COc1ccc(-c2ccc(CCC(=O)O)n2-c2ccccc2OC)cc1,"inconclusive [inhibitor, single point]",–
Cc1cc(C)cc(NC(=O)Cn2c(=O)c3ccccc3n3nncc23)c1,inactive,–
O=S(=O)(Cc1ccc(Cl)cc1)Nc1ccc2c(c1)OCO2,"inconclusive [inhibitor, single point]",–
COc1ccc2[nH]cc(CCNc3ccnc(-c4ccccc4Cl)n3)c2c1,"inconclusive [inhibitor, single point]",–
O=C1C=C(c2cc(C(F)(F)F)cc(C(F)(F)F)c2)C[C@@H](c2ccc(Cl)cc2)C1,"inconclusive [inhibitor, single point]",–
CNC(=O)Cn1nc(C)c(S(=O)(=O)N2CCOCC2)c1C,inactive,–
O=C(Cc1c(O)c2ccccc2oc1=O)c1ccc(F)cc1,inactive,–
CSc1ncc(Cl)c(C(=O)N(Cc2ccc(N(C)C)cc2)Cc2ccco2)n1,"inconclusive [inhibitor, single point]",–
Cc1c(Cl)cccc1NC(=O)C(C)n1nnc2sc3c(c2c1=O)CCCC3 (stereo unspecified),"inconclusive [inhibitor, partial curve]",–
Cc1c(C)n(C)c2ccc(C(=O)N3CCN(c4ccccc4)CC3)cc12,"inconclusive [inhibitor, single point]",–
Cc1cc(C)c2sc(NNC(=O)c3ccc(S(=O)(=O)N4CCc5ccccc5C4)cc3)nc2c1,active: 3.26 µM,–
COc1ccc([C@H]2/C=C\CN(C(=O)C3CC3)[C@@H](C)C(=O)N2Cc2ccc(F)cc2)cc1,active: 23.1 µM,–
COc1cccc(C2=NOC(C(=O)NCCCn3ccnc3)C2)c1 (stereo unspecified),inactive,–
CCCn1c(=O)c2sccc2n2c(CCCC(=O)NCc3ccco3)nnc12,inactive,–

Compound,Potency,"activity change, negative = growth inhibition"
CCCc1cc(C(=O)Nc2sc(C)c(C)c2C(=O)OCC)no1,"inconclusive [inhibitor, single point]",–
CC1CN(C(=O)c2cc3cc(Cl)cc(Cl)c3oc2=O)CC(C)O1 (stereo unspecified),"inconclusive [inhibitor, single point]",–
CC(C)c1ccc(OCC(O)CNC(C)c2ccccc2)cc1 (stereo unspecified),active: 16.4 µM,–
Cc1ccc(NC(=S)N2CCN(c3ncccn3)CC2)c(C)c1,inactive,–
Cc1ccc(CNC(=O)Cn2cc(C(=O)c3ccc(F)cc3)c(=O)c3ccc(C)nc32)cc1,"inconclusive [inhibitor, single point]",–
CCOC(=O)N/N=C\c1ccc(OC/C=C/c2ccccc2)cc1,inactive,–
Cc1onc(-c2ccccc2Cl)c1C(=O)Nc1ccc(-c2cn3cccnc3n2)cc1,"inconclusive [inhibitor, partial curve]",–
COc1ccc2cc(C3=CCCCC3)ncc2c1,"inconclusive [inhibitor, single point]",–
CC(C)CNC(=O)c1cc(-c2ccco2)on1,active: 15.8 µM,–
O=C(CC(=O)Nc1cccc(Cl)c1)N/N=C\c1ccccc1,"inconclusive [inhibitor, full curve, poor fit]",–
CC(C)c1nc2n[nH]c(N)c2c2c1CCCC2,"inconclusive [inhibitor, single point]",–
O=C(Nc1cccc(S(=O)(=O)N2CCCCC2)c1)Nc1ccc(Cl)cc1Cl,"inconclusive [inhibitor, single point]",–
CCc1ccc(Cc2cnc(NC(=O)c3ccc4c(c3)CC(c3ccccc3)OC4=O)s2)cc1 (stereo unspecified),"inconclusive [inhibitor, single point]",–
CCOc1ccccc1OCCOCCOc1c(Cl)cccc1Cl,"inconclusive [inhibitor, single point]",–
O=S(=O)(c1cnccc1N1CCN(CCO)CC1)N1CCCC1,inactive,–
C[C@@H]1CN([C@@H](C)CO)C(=O)CCCn2nncc2CO[C@H]1CN(C)Cc1cccc2c1OCCCO2,inactive,–
Cc1noc(/C=C/N(C)C)c1S(=O)(=O)N1CCCC(C(=O)Nc2ccc3c(c2)OCO3)C1 (stereo unspecified),"inconclusive [inhibitor, single point]",–
CS(=O)(=O)Nc1ccc2c(c1)OCC(=O)N2Cc1ccccc1,inactive,–
CCOC(=O)C1CCN(C(=O)C2CCN(C3=NS(=O)(=O)C(c4ccc(C)c(C)c4)=C3C)CC2)CC1,active: 16.4 µM,–
COc1ccc(/C=N\NC(=O)c2cc(O)c(O)c(O)c2)cc1CN1CCN(c2ccc(F)cc2)CC1,"inconclusive [inhibitor, single point]",–
COc1ccc(C(=O)NC(=S)Nc2cccc3nc(C)ccc23)cc1OC,"inconclusive [inhibitor, single point]",–
COc1cccc(-c2nn(-c3ccc(F)cc3)cc2C(=O)NCC2CCCO2)c1 (stereo unspecified),active: 23.1 µM,–
C=CCN(C(=O)Cn1ncc2c1-c1cc(C)ccc1OC2)c1ccccc1,"inconclusive [inhibitor, single point]",–
COc1cc(OC)cc(C(=O)OCC(=O)N(C)c2ccccc2)c1,inactive,–

Compound,Potency,"activity change, negative = growth inhibition"
CC(C)CSc1oc(-c2ccco2)nc1S(=O)(=O)c1ccccc1,"inconclusive [inhibitor, single point]",–
O=C(c1ccc(-n2c(SCc3cccc(F)c3)nc3ccccc3c2=O)cc1)N1CCOCC1,"inconclusive [inhibitor, single point]",–
Cc1cccc(N=Cc2[nH]c3ccc(Br)c(Cl)c3c2O)c1,active: 25.9 µM,–
O=C(/C=C/c1ccc(S(=O)(=O)N2CCOCC2)cc1)Nc1ccc(F)c(F)c1F,"inconclusive [inhibitor, single point]",–
COCCN=C1Sc2nc3ccc(C)cc3cc2CN1Cc1cccs1,"inconclusive [inhibitor, single point]",–
CCn1c(CC(=O)Nc2ccccc2F)nnc1SCC(=O)N1CCOCC1,inactive,–
Cc1ccc(CN2CCN(/N=C/c3cc(Br)ccc3O)CC2)cc1,"inconclusive [inhibitor, partial curve]",–
COc1cccc(NC(=O)CN(Cc2ccccc2)S(C)(=O)=O)c1,inactive,–
COc1ccc2sc(N(CCCN(C)C)C(=O)c3ccc(S(=O)(=O)N(C)C4CCCCC4)cc3)nc2c1,"inconclusive [inhibitor, single point]",–
Cc1ccc2[nH]c(CCN(C)C)c(CN3CCOCC3)c2c1,active: 20.6 µM,–
CC1CCc2c(sc3nc(C(C)(C)C)nc(N4CCN(C(=O)CCl)CC4)c23)C1 (stereo unspecified),active: 1.84 µM,–
O=C(c1ccc2c(c1)N(Cc1ccc(Cl)cc1)C(=O)c1ccccc1S2(=O)=O)N1CCCCC1,"inconclusive [inhibitor, single point]",–
COc1cc2c(cc1OC)C1C/C(=N\O)C(CC(C)C)CN1CC2 (stereo unspecified),"inconclusive [inhibitor, single point]",–
O=C(Nc1nc2ccc(F)cc2s1)c1nc(S(=O)(=O)Cc2ccccc2)ncc1Cl,active: 2.31 µM,–
CCC(C)(C)C1CCc2[nH]nc(C(=O)NCCNC(=O)OC(C)(C)C)c2C1 (stereo unspecified),"inconclusive [inhibitor, single point]",–
O=C(Nc1ccccc1N1CCCC1)C1CCN(S(=O)(=O)c2ccccc2C(F)(F)F)CC1,"inconclusive [inhibitor, single point]",–
Cc1nc(C)n(C(C)CNC(=O)c2ccco2)n1 (stereo unspecified),inactive,–
CCOc1ccc(CCNC(=O)C2COc3ccccc3C2)cc1OCC (stereo unspecified),"inconclusive [inhibitor, partial curve]",–
CC1(NC(=O)NCCCCCCNC(=O)NC2(C)CCS(=O)(=O)C2)CCS(=O)(=O)C1 (stereo unspecified),inactive,–
Cc1ccc(NC(=O)CN2C(=O)C3C4C=CC(C4)C3C2=O)cc1 (stereo unspecified),inactive,–
O=S(=O)(c1cc(Cl)ccc1Br)N1CCCCC1,"inconclusive [inhibitor, full curve, poor fit]",–
CCCC(=Nc1ccc(N)cc1)C1=C(O)C(C(=O)OC)C(C)(C)CC1=O (stereo unspecified),inactive,–
Cc1ccc(C2/C=C\CC(NC(=O)OCC3c4ccccc4-c4ccccc43)CC(=O)N2Cc2ccccc2)cc1 (stereo unspecified),"inconclusive [inhibitor, single point]",–
